# Several values for one entry are separate records, joined by “and”; a condition that tells them apart may be missing. Identical values can stand only once. Whole data set: some 110,000 compounds, median “z-score” near -0.1, cut for the highest 2% near 2. Some of the results follow.
# Target: Metabotropic glutamate receptor 8 (Rattus norvegicus) (UniProt P70579)
# Experiment: rat mGluR8 modulators via GIRK flux, primary screen, cell-based, thallium flux, HTS (AID 488969)
# Conditions: HEK293 rat mGluR8, GIRK (G protein-gated inwardly rectifying potassium channel) thallium flux, FluoZin2; at 10 µM; stronger effect = higher value; submaximal glutamate (EC20) added with thallium
# Chain of UniProt P70579 (P70579 whole entry, looked up): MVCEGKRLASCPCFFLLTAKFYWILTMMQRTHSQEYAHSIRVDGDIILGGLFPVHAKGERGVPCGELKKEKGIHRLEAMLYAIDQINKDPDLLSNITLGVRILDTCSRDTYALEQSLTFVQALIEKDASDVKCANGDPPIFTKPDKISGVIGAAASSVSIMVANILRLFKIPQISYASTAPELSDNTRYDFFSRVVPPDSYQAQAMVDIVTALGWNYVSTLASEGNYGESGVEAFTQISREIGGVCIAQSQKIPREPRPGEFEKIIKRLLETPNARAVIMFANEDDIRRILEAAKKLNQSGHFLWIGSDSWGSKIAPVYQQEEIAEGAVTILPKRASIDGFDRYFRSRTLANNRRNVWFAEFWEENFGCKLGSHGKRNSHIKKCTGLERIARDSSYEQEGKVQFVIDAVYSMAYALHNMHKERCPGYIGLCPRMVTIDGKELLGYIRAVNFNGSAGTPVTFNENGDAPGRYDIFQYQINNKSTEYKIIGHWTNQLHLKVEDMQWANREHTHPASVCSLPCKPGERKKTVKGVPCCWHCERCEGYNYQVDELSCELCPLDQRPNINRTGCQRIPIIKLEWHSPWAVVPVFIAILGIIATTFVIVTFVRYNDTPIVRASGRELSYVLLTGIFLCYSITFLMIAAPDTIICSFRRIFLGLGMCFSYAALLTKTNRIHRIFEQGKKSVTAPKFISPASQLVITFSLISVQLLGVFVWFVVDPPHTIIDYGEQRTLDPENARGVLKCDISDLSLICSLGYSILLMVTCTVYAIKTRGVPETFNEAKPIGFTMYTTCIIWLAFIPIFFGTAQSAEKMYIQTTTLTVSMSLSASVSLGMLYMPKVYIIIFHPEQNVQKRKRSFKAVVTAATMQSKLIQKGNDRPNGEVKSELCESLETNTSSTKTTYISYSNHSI
row,Structure (SMILES),z-score
1,Cn1c(SCC(=O)NC2CC2)nnc1-c1cccc(NC(=O)c2ccccc2F)c1,-0.214
2,COc1ccc(C)cc1NC(=O)CN1CCN(S(=O)(=O)c2ccc(Br)cc2)CC1,-0.133
3,CON/C=C(\C=Nc1ccccc1)c1ncc(C(F)(F)F)cc1Cl,0.07
4,COc1ccc(C(=O)NNC(=S)NC(=O)c2cc(-c3ccccc3)nc3ccccc23)cc1,2.35
5,CC(C)c1onc(C(=O)NCc2ccc(F)cc2)c1[N+](=O)[O-],-0.167
6,CCn1c(CNC(=O)c2ccco2)nnc1SCC(=O)Nc1cc(C)c(C)cc1Br,-0.121
7,O=C(NC(=S)Nc1ccc(S(=O)(=O)N2CCCCCC2)cc1)c1cccs1,-0.208
8,Cc1cc(C)c(OCC(=O)N/N=C/c2ccco2)c(C)c1,0.641
9,Clc1ncnc2scc(-c3ccc(Br)cc3)c12,0.0491
10,O=C(COC(=O)c1ccc([N+](=O)[O-])s1)Nc1ccccc1,-0.0827
11,CC(Oc1ccccc1)c1ccnn1S(C)(=O)=O (stereo unspecified),-0.286
12,COc1ccc(-c2noc(CSc3nnc(-c4ccccc4)n3C)n2)cc1,-0.535
13,N/C(=N\OC(=O)Oc1ccccc1)c1ccc(Cl)cc1,0.0329
14,CCNc1nc(CN2CCOCC2)nc2sc3c(c12)CCC3,-0.8
15,O=C(c1sc2ccccc2c1Cl)N(Cc1ccccc1)C1CCS(=O)(=O)C1 (stereo unspecified),1.16
16,Cc1cn(C2OC(COC(=O)c3ccccc3)C(O)C2O)c(=O)[nH]c1=O (stereo unspecified),0.18
17,Cc1ccc(/C=N/NC(=O)c2ccc(Br)o2)s1,1.2
18,Cc1ccc(NC(=O)c2ccc(NS(=O)(=O)c3c(C)noc3C)cc2)cc1C,1.03
19,O=C(CSc1nnc(-c2cccnc2)n1CCc1ccccc1)N1CCCCC1,-0.33
20,CC(C)C(c1nnnn1C1CCCCC1)N1CCc2ccccc21 (stereo unspecified),-0.312
21,COc1ccc(Nc2cc(C(=O)NCCCN3CCN(C)CC3)c3ccccc3n2)cc1,0.531
22,O=C(CCSCCC(=O)NCc1ccc(F)cc1)NCc1ccc(F)cc1,-0.471
23,O=S(=O)(NCc1ccccc1)c1cnc[nH]1,0.23
24,CCN(CC)C(=O)COc1ccc(CC(=O)O)cc1OC,-0.345

row,Structure (SMILES),z-score
1,Oc1ccc(C(=S)N2CCCCC2)cc1Cl,-0.0261
2,Cc1cc(C)n2nc(SCc3nnc(SCCCCl)o3)nc2n1,-0.157
3,Cc1ccsc1C(C(=O)NC1CCCCC1)N(C(=O)Cc1cccs1)C1CC1 (stereo unspecified),-0.616
4,O=C(c1ccc2c(=O)n(Cc3ccco3)c(=S)[nH]c2c1)N1CCN(Cc2ccccc2)CC1,0.611
5,C=CCN1C(=O)C(CC(=O)O)SC1=Nc1c(C)n(C)n(-c2ccccc2)c1=O (stereo unspecified),0.0505
6,Nc1nnc(Cc2ccc(Cl)cc2)s1,0.16
7,CC(C)CC(=O)NCCCN1CCN(CCCNC(=O)CC(C)C)CC1,-0.447
8,N#CC1=C(SCC(=O)Nc2ccccc2)NC(=O)CC1c1ccc(O)cc1 (stereo unspecified),-0.397
9,CSCc1c(C(=O)Nc2ccc(N3CCOCC3)cc2)oc2ccccc12,-0.222
10,COc1ccc2cnn(-c3ccccc3)c(=O)c2c1OC,-0.29
11,Cc1nc2ncnn2c(C)c1CCC(=O)N1CCCCC1,-0.091
12,Cc1ccc(-n2nnc3c(=O)n(CC(=O)c4ccccc4)cnc32)cc1,-0.154
13,O=C(O)CSc1cccc2cccnc12,-0.347 and 0.372
14,COCc1nnc(NC(=O)c2ccc(NC(C)=O)cc2)s1,-0.204
15,Cc1ccc(S(=O)(=O)NNC(=O)CCC(=O)Nc2ccccc2)cc1,-0.0614
16,Cc1cccc(NC(=S)NNC(=O)c2ccccc2OC(F)F)c1,0.375
17,Cc1cc(Cl)ccc1Oc1ccc(C(N)=O)cc1[N+](=O)[O-],1.77
18,Clc1ccc(OCc2nnc(SCc3nnc(-c4ccccc4)o3)o2)c(Cl)c1,0.506
19,Cc1occc1C(=O)Nc1cccc2ccccc12,-0.0476
20,COc1ccccc1C(=O)N1CCN(CCc2ccccc2)CC1,0.953
21,Cc1ccc(NC(=O)N(CCCN2CCOCC2)Cc2cc3cc4c(cc3[nH]c2=O)OCO4)cc1,-1.12
22,CCOc1ccc(N2C(=O)CC(N(O)c3ccccc3)C2=O)cc1 (stereo unspecified),-0.458
23,Cc1ccc2c(COn3nnc4ccc(S(=O)(=O)N(C)C)cc43)cc(=O)oc2c1C,-0.158
24,CN=C1S/C(=C\c2ccc(N3CCOCC3)c(F)c2)C(=O)N1C,-0.309

row,Structure (SMILES),z-score
1,CS(=O)(=O)N1CCN(c2ccc(NC(=O)c3cccnc3Cl)cc2)CC1,0.393
2,CN(CCCNC(=O)C1CCC(=O)N1Cc1ccc(F)cc1)c1ccccc1 (stereo unspecified),0.152
3,CN(Cc1cn(C)c2ccccc12)C(=S)Nc1cc(F)cc(F)c1,-0.166
4,Cc1ccc(NC(=O)CSc2nnc(-c3cccs3)n2Cc2ccco2)cc1,-0.426
5,Cc1cc(NC(=O)CN2CCN(c3ncccn3)CC2)no1,-0.518
6,CCOn1c(-n2nc(C)cc2C)nc2ccccc2c1=O,0.0226
7,Cc1ccc(N2CC(C(=O)Nc3ccccc3C(=O)NC3CCCCC3)CC2=O)cc1 (stereo unspecified),0.0674
8,COc1ccc(/C=C2\C(=O)N(c3c(Cl)cc(Cl)cc3Cl)N=C2NC(=O)c2cccc([N+](=O)[O-])c2)cc1,-0.0535
9,O=C(NCc1ccc(F)cc1)C(c1ccccc1)N(CC1CCCO1)C(=O)Cn1nnc2ccccc21 (stereo unspecified),-0.209
10,Cc1cccc(S(=O)(=O)Nc2ccc(-c3nc4ccc(C)cc4s3)cc2)c1,-0.124
11,O=C(COc1cccc2ccccc12)N1c2ccccc2CCc2ccccc21,-0.388
12,COCc1nnc(SCC(=O)NC(C)c2ccccc2)n1-c1ccccc1 (stereo unspecified),-0.0891
13,COCCCNC(CC(=O)Nc1ccc(OC)cc1OC)C(=O)O (stereo unspecified),-0.539
14,CCC1CCCCN1CC(=O)c1c(C)[nH]c2ccccc12 (stereo unspecified),-0.699
15,COc1ccc(C=NCCCN2CCOCC2)cc1,-0.291
16,Cc1cc(C)cc(OCC(=O)NNC(=O)CCN2C(=O)c3ccccc3C2=O)c1,0.453
17,CCOC(=O)C1CC=C(Cl)CC1C(=O)Nc1nccs1 (stereo unspecified),-0.559
18,O=C(CSc1nnc(-c2ccc3c(c2)OCCO3)o1)NC1CCCCC1,0.359
19,Cc1cccc(OCCSc2nnc(-c3ccoc3C)n2C)c1,0.76
20,O=C(NC1(C(F)(F)F)C(=O)Nc2c1c(=O)[nH]c(=O)n2-c1ccccc1)c1ccncc1 (stereo unspecified),-0.25
21,COc1ccc(Cl)c(NC(=O)NCCN2CCN(c3ccccc3)CC2)c1,-0.297
22,Cc1[nH]n2c(=O)c3c(nc2c1-c1cccc2ccccc12)CCC3,-0.799
23,COc1ccc(Sc2nnc(-c3ccccc3)cc2C#N)cc1,0.0597
